Laboratory results taken from the antibiotic and cytotoxicity screens of Wong et al. (2023).
This is one part of the list.

Test system: HepG2
Experiment: cytotoxicity call (relative viability < 0.9)
Conditions: 10 µM

Row | Compound | cytotoxicity call
1 | COc1ccccc1NC(=O)N(C)C[C@H]1Oc2ncc(C#CCN(C)C)cc2C(=O)N([C@@H](C)CO)C[C@@H]1C | inactive
2 | Cc1noc(C)c1S(=O)(=O)N(C)C[C@H]1Oc2ccc(NS(=O)(=O)c3ccc(F)cc3)cc2CC(=O)N([C@H](C)CO)C[C@H]1C | inactive
3 | CC=Cc1ccc2n(c1=O)C[C@H]1[C@H](CO)[C@@H](C(=O)NC3CCC3)[C@@H]2N1S(=O)(=O)c1cn(C)cn1 | inactive
4 | COc1cccc(S(=O)(=O)N(C)C[C@@H]2Oc3ncc(C#CCN(C)C)cc3C(=O)N([C@@H](C)CO)C[C@@H]2C)c1 | inactive
5 | Nc1ccn(C2CSC(CO)O2)c(=O)n1 (stereo unspecified) | inactive
6 | c1ccc(-c2nc(C34CC5CC(CC(C5)C3)C4)cs2)cc1 | inactive
7 | COc1ccc(S(=O)(=O)N(C)C[C@H]2Oc3cc(C#CC4CC4)ccc3S(=O)(=O)N([C@H](C)CO)C[C@@H]2C)cc1 | inactive
8 | COc1cc(/C=C/C(=O)OC[C@H]2O[C@@H](O[C@@H]3OC=C[C@H]4[C@H](O)[C@@H]5O[C@]5(CO)[C@@H]34)[C@H](O)[C@@H](O)[C@@H]2O)ccc1O | inactive
9 | Cc1ccc(S(=O)(=O)N(C)C[C@@H]2Oc3ccc(N(C)C)cc3CC(=O)N([C@@H](C)CO)C[C@@H]2C)cc1 | active
10 | CCCNC(=O)Nc1ccc2c(c1)OC[C@@H](C)N(Cc1ccc(-c3ccccn3)cc1)C[C@H](C)[C@H](OC)CN(C)C2=O | inactive
11 | C[C@@H]1CN([C@H](C)CO)C(=O)c2cc(NC(=O)c3ccncc3)ccc2O[C@@H](C)CCCCO[C@H]1CN(C)Cc1ccccc1 | inactive
